Laboratory results: US20220306753A1 (JN BIOSCIENCES, published 2022)

B1: HuABC2-CTLA4YE (other)
heavy: EVQLVESGGGLVQPGGSLRLSCAASGFTFSDFYMEWVRQAPGKGLEWIAASRNKANDYTTEYSASVKGRFIVSRDDSKNSLYLQMNSLKTEDTAVYYCARSYYRYDGMDYWGQGTTVTVSSASTKGPSVFPLAPSSKSTSGGTAALGCLVKDYFPEPVTVSWNSGALTSGVHTFPAVLQSSGLYSLSSVVTVPSSSLGTQTYICNVNHKPSNTKVDKKV[gap - human IgG1 Fc with changes]SGGGGSGMHVAQPAVVLASSRGIASFVCEYASPGKYTEVRVTVLRQADSQVTEVCAATYMMGNELTFLDDSICTGTSSGNQVNLTIQGLRAMDTGLYICKVELMYPPPYYEGIGNGTQIYVIDPEPCPDSD
light: EIVLTQSPATLSLSPGERATLSCSAISSVSYMYWYQQKPGQAPRLLIYDTSNLVSGVPARFSGSGSGTDYTLTISSLEPEDFAVYYCQQWNTYPYTFGGGTKVEIKRTVAAPSVFIFPPSDEQLKSGTASVVCLLNNFYPREAKVQWKVDNALQSGNSQESVTEQDSKDSTYSLSSTLTLSKADYEKHKVYACEVTHQGLSSPVTKSFNRGEC
notes: Bifunctional molecule: HuABC2 IgG1 (L234A/L235A) with variant CTLA-4 extracellular domain (A29Y, L104E); encoded by pHC625/pHC622; also called HuABC2-CH3-CTLA4YE
B2: HuABC77D-CH3-CTLA4YE (other)
heavy: EVQLVESGGGLVQPGGSLRLSCAASGFDFSRYWMSWVRQAPGKGLEWIGEINPDSSTINYAPSLKDRFTISRDNAKNSLYLQMNSLRAEDTAVYYCARHDYDEGIYFDYWGQGTTVTVSSASTKGPSVFPLAPSSKSTSGGTAALGCLVKDYFPEPVTVSWNSGALTSGVHTFPAVLQSSGLYSLSSVVTVPSSSLGTQTYICNVNHKPSNTKVDKKV[gap - human IgG1 Fc with changes]SGGGGSGMHVAQPAVVLASSRGIASFVCEYASPGKYTEVRVTVLRQADSQVTEVCAATYMMGNELTFLDDSICTGTSSGNQVNLTIQGLRAMDTGLYICKVELMYPPPYYEGIGNGTQIYVIDPEPCPDSD
light: DIQMTQSPSSLSASVGDRVTITCSASSRVIYMHWYQQKPGKAPKRWIYDTSKLASGVPSRFSGSGSGTEFTLTISSLQPEDFATYYCQQWSSNPPTFGGGTKVEIKRTVAAPSVFIFPPSDEQLKSGTASVVCLLNNFYPREAKVQWKVDNALQSGNSQESVTEQDSKDSTYSLSSTLTLSKADYEKHKVYACEVTHQGLSSPVTKSFNRGEC
notes: Bifunctional molecule: linker and variant CTLA-4 extracellular domain fused to the C-terminus of the HuABC77D heavy chain; encoded by pHC645; transient HEK293 supernatant

What was measured:
[1] = biological target: T1, Human IL-2R beta/CD122 Protein, Fc Tag (human, UniProt P14784 27-239); test: ELISA, plate coated with 1 µg/ml CD122 Fc tag protein, binder from 0.5 µg/ml in 2-fold dilutions, anti-human kappa-HRP
T1 construct: Bought protein coated on the ELISA plate; also called Cat. No. ILB-H5253, Acro Biosystems; not shown: Fc tag of the bought protein
T1 sequence (looked up): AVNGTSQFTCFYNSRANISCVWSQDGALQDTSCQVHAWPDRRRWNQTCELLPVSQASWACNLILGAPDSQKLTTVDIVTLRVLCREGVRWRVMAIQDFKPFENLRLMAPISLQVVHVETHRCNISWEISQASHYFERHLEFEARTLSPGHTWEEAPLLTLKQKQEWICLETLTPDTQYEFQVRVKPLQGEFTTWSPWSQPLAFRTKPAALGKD
Description: (§1) Binding of HuABC2-CTLA4 and HuABC2-CTLA4YE to human CD122, CD80 and CD86 was analyzed by ELISA. Wells of an ELISA plate were coated with 1 μg/ml of either CD122 (Human IL-2R beta/CD122 Protein, Fc Tag; Cat. No. ILB-H5253, Acro Biosystems, Newark, Del.), CD80 (Human B7-1/CD80 Protein, Mouse IgG2a Tag; Cat. No. B71-H52A4, Acro Biosystems) or CD86 (Human B7-2/CD86 Protein, Fc Tag; Cat. No. CD6-H5257, Acro Biosystems) in PBS. After blocking with Blocking Buffer and washing the wells with Wash Buffer, transiently expressed HuABC2-CTLA4 and HuABC2-CTLA4YE at 0.5 μg/ml and serial 2-fold dilutions in ELISA Buffer were applied to the wells in duplicates. Purified HuABC2 at 0.5 μg/mland serial 2-fold dilutions was used as a control. After incubation for 1 hr at room temperature and washing with Wash Buffer, bound antibodies were detected using HRP-conjugated goat anti-human kappa chain polyclonal antibody. After incubation for 30 min and washing with Wash Buffer, color development was initiated by adding ABTS substrate and stopped with 2% oxalic acid. Absorbance was read at 405 nm.

[2] = biological target: T2, CD80-FLAG-GPI (human); test: flow cytometry on CHO-K1/CD80 cells, binder at 625 ng/ml, PE anti-human IgG
T2 construct: also called CHO-K1/CD80 cells
T2 chain: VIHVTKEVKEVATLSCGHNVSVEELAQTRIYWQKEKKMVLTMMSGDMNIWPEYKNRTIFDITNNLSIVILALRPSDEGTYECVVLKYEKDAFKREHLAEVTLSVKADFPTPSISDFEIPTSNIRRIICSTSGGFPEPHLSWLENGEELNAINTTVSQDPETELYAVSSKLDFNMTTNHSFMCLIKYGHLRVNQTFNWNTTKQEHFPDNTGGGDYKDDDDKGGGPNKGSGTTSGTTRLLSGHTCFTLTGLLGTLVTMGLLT
Description: (§2) CHO-K1 stable transfectants expressing CD80-FLAG-GPI (CHO-K1/CD80) and CD86-FLAG-GPI (CHO-K1/CD86) were generated by electroporation with pFCm553 and pFCm554, respectively, as described above. Binding of HuABC2-CH3-CTLA4YE, HuABC2-Ck-CTLA4YE, HuABC2-CTLA4YE-VH and HuABC2-CTLA4YE-Vk to CHO-K1/CD80 and CHO-K1/CD86 cells was analyzed by flow cytometry. Belatacept (also known as LEA29Y and Nulojix; SEQ ID NO:49), which is a CTLA4-Ig fusion protein carrying a substitution of an alanine residue to a tyrosine residue at position 29 (A29Y) and another substitution of a leucine residue to a glutamate residue at position 104 (L104E) of SEQ ID NO:10 (Larsen et al., Am. J. Transplant. 5:443-453, 2005; Oshima et al., Protein Eng. Des. Sel. 29:159-167, 2016), was purchased from Creative Biomart (Cat. No. THP-0109, Shirley, N.Y.) and used as a reference in the experiments.
(§3) Purified test samples (HuABC2-CH3-CTLA4YE, HuABC2-Ck-CTLA4YE, HuABC2-CTLA4YE-VH, and HuABC2-CTLA4YE-Vk) and belatacept, starting at 10 μg/mland five steps of 4-fold serial dilutions, were incubated with CHO-K1/CD80 or CHO-K1/CD86 cells in FACS Buffer (PBS containing 0.5% BSA and 0.05% sodium azide) for 30 min at 4° C. After washing with FACS Buffer, cells were incubated with PE-labeled goat anti-human IgG antibody (SouthernBiotech, Birmingham, Ala.) in FACS Buffer for 20 min at 4° C. After washing and suspension in FACS Buffer, stained cells were subjected to flow cytometry.
(§4) The binding patterns of HuABC2-CH3-CTLA4YE, HuABC2-Ck-CTLA4YE, HuABC2-CTLA4YE-VH, HuABC2-CTLA4YE-Vk and belatacept to CHO-K1/CD80 cells are shown in FIG. 9A. While the binding of each of HuABC2-CTLA4YE-VH and HuABC2-CTLA4YE-Vk to CD80 was only slightly weaker than the binding of belatacept, the binding of HuABC2-CH3-CTLA4YE and HuABC2-Ck-CTLA4YE was a lot weaker than that of belatacept.

[3] = biological target: T3, Human B7-2/CD86 Protein, Fc Tag (human, UniProt P42081 24-247); test: ELISA, plate coated with 1 µg/ml CD86 Fc tag protein, binder from 0.5 µg/ml in 2-fold dilutions, anti-human kappa-HRP
T3 construct: Bought protein coated on the ELISA plate; also called Cat. No. CD6-H5257, Acro Biosystems; not shown: Fc tag of the bought protein
T3 sequence (looked up): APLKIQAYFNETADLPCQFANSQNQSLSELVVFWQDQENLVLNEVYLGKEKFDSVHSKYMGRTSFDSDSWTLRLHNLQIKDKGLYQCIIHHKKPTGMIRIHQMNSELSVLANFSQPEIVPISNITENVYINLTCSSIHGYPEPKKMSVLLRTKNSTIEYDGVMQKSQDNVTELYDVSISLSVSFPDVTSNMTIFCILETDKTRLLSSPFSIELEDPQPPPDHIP
Description: as §1

[4] = biological target: T4, CD86-FLAG-GPI (human); test: flow cytometry on CHO-K1/CD86 cells, binder at 625 ng/ml, PE anti-human IgG
T4 construct: also called CHO-K1/CD86 cells
T4 chain: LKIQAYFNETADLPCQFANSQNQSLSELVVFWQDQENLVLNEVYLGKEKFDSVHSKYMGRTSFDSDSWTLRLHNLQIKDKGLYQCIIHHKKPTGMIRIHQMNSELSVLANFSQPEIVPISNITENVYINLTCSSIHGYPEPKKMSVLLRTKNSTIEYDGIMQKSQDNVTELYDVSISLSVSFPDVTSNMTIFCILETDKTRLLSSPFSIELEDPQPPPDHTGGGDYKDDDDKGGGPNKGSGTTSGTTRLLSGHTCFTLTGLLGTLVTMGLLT
Description: as §2, §3
as §4, with “CHO-K1/CD86” for “CHO-K1/CD80”, “9B. Like the case with CHO-K1/CD80 cells, while” for “9A. While”, “CD86” for “CD80”, “the binding” for “that”

[5] = biological target: T5, Human B7-1/CD80 Protein, Mouse IgG2a Tag (human, UniProt P33681 35-242); test: ELISA, plate coated with 1 µg/ml CD80 mouse IgG2a tag protein, binder from 0.5 µg/ml in 2-fold dilutions, anti-human kappa-HRP
T5 construct: Bought protein coated on the ELISA plate; also called Cat. No. B71-H52A4, Acro Biosystems; not shown: mouse IgG2a tag of the bought protein
T5 sequence (looked up): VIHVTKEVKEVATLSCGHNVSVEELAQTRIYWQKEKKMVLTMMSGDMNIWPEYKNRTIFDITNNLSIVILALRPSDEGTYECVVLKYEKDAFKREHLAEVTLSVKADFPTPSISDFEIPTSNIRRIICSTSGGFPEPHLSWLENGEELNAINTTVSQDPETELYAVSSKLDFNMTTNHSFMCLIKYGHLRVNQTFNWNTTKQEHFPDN
Description: as §1

[6] = biological target: T4, CD86-FLAG-GPI; test: flow cytometry on CHO-K1/CD86 cells, binder at 500 ng/ml
Description: as §3
(§5) The two expression vectors (pHC644 and pHC645) were individually transfected into HEK293 cells as described above. Their expression level in culture supernatants was measured by sandwich ELISA as described above. Binding of HuABC77D-CH3-CTLA4YE and HuABC77D-CTLA4YE-VH to CHO-K1/CD80 and CHO-K1/CD86 cells was analyzed by flow cytometry as described above. Belatacept was used as a reference for binding to CD80 and CD86. The test samples were used at 500 ng/ml and four steps of 3-fold serial dilutions.
(§6) The results of binding to CHO-K1/CD80 and CHO-K1/CD86 cells are shown in FIGS. 13A and B, respectively.

[7] = biological target: T2, CD80-FLAG-GPI; test: flow cytometry on CHO-K1/CD80 cells, binder at 500 ng/ml
Description: as §3, §5, §6

| Binder | binding result [1] | mean channel fluorescence (MCF) [2] | binding result [3] | mean channel fluorescence (MCF) [4] | binding result [5] | mean channel fluorescence (MCF) [6] | mean channel fluorescence (MCF) [7] |
| --- | --- | --- | --- | --- | --- | --- | --- |
| B1 | binds | 425 | binds | 221 | binds |  |  |
| B2 |  |  |  |  |  | 118 | 1810 |
